In all, about 33,000 sequences were measured (“E-score (-0.5 to 0.5)”: median about -0.01, highest 2% from about 0.26 on). The list shows a part of the results.
Molecular target: Ste12 (UniProt P13574)
Assay: PBM E-score (8-mer binding enrichment) (E-score (-0.5 to 0.5)); higher = stronger / more preferred TF binding; most listed sequences are background and not binding sites
Settings: protein concentration: 200 nM; construct: GST-DNA-binding domain
In short: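 The E-score, a modified Wilcoxon-Mann-Whitney statistic, was computed by the Universal PBM Analysis Suite for every ungapped eight-base word pooled with its reverse complement. Scans behind it were normalised with masliner after bound GST-tagged yeast transcription factors were detected with fluorescent anti-GST. The proteins, at about 100-200 nM, had been applied to universal all-10-mer Agilent arrays made double-stranded by primer extension.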

Sequence	PBM E-score
CCTTATTC	-0.101
ACAACGTA	-0.201
ACACCGCC	-0.0092
AGAACGGG	-0.0677
CTGAAAAA	0.0763
GATCACAC	-0.145
GCTGTCAC	-0.0491
CGGTTCCA	0.0407
AGGGTTTC	0.114
CACTCTAG	-0.189
CCCGGAGG	-0.114
AAACCACG	-0.0476
CCCGAGAC	-0.0713
GAAATTGC	0.0231
GGTTACAC	-0.0834
ACCTGCAC	-0.0342
CATATCGC	0.0108
GGGGGAAC	-0.182
GAGTTGGA	0.0912
GACATCCA	0.023
GCCAATCA	-0.122
GAGGCAGC	-0.136

Sequence	PBM E-score
CGGTGGTA	-0.0749
GTAGGTCA	-0.217
ACACTCGC	0.154
CGCTAAGC	-0.152
AGGACTGA	-0.158
AGTCATTA	-0.227
ACAGAGAC	0.0205
GTATGGGA	-0.19
CGTGATAC	0.0317
AATGCGGC	0.0831
GGATCTCA	-0.271
ATCAGATG	-0.0233
GAACCCAA	-0.0682
CCTCCCTC	0.173
GCAACTCC	-0.151
ATTTGACG	0.109
CGTTTTAC	0.199
CCACCAGG	-0.219
AGTAGGGC	-0.0895
ACCCTTTG	0.0136
TAGTTCGA	0.115
AACGGGAT	0.108

Sequence	PBM E-score
CTATAAAC	0.113
CTACGCCC	-0.0276
CTTAGGGC	-0.0561
CAGTACGA	0.0913
CTAGATTA	-0.0366
ACCGAAAC	0.194
TCCAACGA	-0.145
ATGGTAGG	-0.123
ATTGTGCC	-0.0274
CAAAGTCG	0.0234
AGTGGTAG	-0.153
GCGCGAAC	0.0211
AGTCATGA	-0.0513
CTCCGTAC	-0.0963
CGATAAAG	-0.0154
ACACGCTA	0.00885
GCGACTTA	-0.128
CCTGTCTC	-0.116
AAGTGCAC	-0.0265
AATAATAC	0.198
CAATGTAG	-0.0151
GACGTAGA	-0.136
